Sequences with one replicate were seen in a single cluster, so their values are uncertain.
Tested on: ATP
Experiment: switch fluorescence ratio, 500 uM ATP over buffer (Cy3 cluster intensity, sum of 5 cycles each) (fold (ratio)); higher = stronger signal-on switching upon ATP binding; sequences stand for … in TCGTCGGCAGCGTCAGATGTGTATAAGAGACAGTTTTTTTTTTTTTTTTTTTTTTTTT…TC
Conditions: aptamer strand: ATP DNA aptamer (quencher-CACCTGGGGGAGTATTGCGGAGGAAGG + anchor), 100 nM annealed; ATP concentration: 500 uM; one replicate
Outline: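 Between each of five buffer/ATP cycles, the flow-cell was stripped with NaOH and re-annealed. Each cycle imaged Cy3-labelled switching-strand clusters, annealed to 100 nM quencher-labelled ATP aptamer on a modified Illumina MiSeq flow-cell, first in selection buffer and then after 15 min with 500 uM ATP at 22 °C. The fluorescence ratio is summed target-cycle over summed buffer-cycle Cy3 intensity per cluster, averaged per switch-domain sequence, with clusters outside 100-1000 RFU excluded.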
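Also: ATP exposure 15 min at 22 °C before imaging.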

CGGTCGAGCA
switch fluorescence ratio: 1.01

TAAGGAACGA
switch fluorescence ratio: 0.992

TCCGAGTCAT
switch fluorescence ratio: 1

GCCACAATTG
switch fluorescence ratio: 1.03

ATATATCGCC
switch fluorescence ratio: 0.901

TAGCGTTAAG
switch fluorescence ratio: 1.01

ACCGGAGCCA
switch fluorescence ratio: 2.63

ATTGCCTTTT
switch fluorescence ratio: 0.995

TCACGGTTAC
switch fluorescence ratio: 1.48

CGGGTCCTGC
switch fluorescence ratio: 1.09

GGCGATAAGG
switch fluorescence ratio: 1.03

TCTGAAGTG
switch fluorescence ratio: 0.973

TGTGACACAT
switch fluorescence ratio: 1.02

TCTAAGGAAA
switch fluorescence ratio: 1.03

AAGCAGATTG
switch fluorescence ratio: 0.986

ATTACGGAGG
switch fluorescence ratio: 0.997

GACTCACAGG
switch fluorescence ratio: 1.16

TCTCCAGCTG
switch fluorescence ratio: 1.71

AGATAGTAGT
switch fluorescence ratio: 1.01

AAGATCGCAT
switch fluorescence ratio: 1.13

TTGATACAAT
switch fluorescence ratio: 1

GCCATTGTGA
switch fluorescence ratio: 0.989

GTTTGATCTA
switch fluorescence ratio: 0.96

GAGAGGCGAT
switch fluorescence ratio: 0.996

AAGCAGTGAT
switch fluorescence ratio: 0.973

GGTCAAATCG
switch fluorescence ratio: 0.957

TTTAAGTTGT
switch fluorescence ratio: 0.971

AATCCACGTG
switch fluorescence ratio: 1.04

TCTCACTTAC
switch fluorescence ratio: 1.75

GTCGTCTGCC
switch fluorescence ratio: 1.01

GAAGGACTGT
switch fluorescence ratio: 1.15

TTTTCTAAGA
switch fluorescence ratio: 0.983

AAAGCGGGAG
switch fluorescence ratio: 0.986

TTTCAACGTA
switch fluorescence ratio: 1.04

GGATATGTGA
switch fluorescence ratio: 0.965

CCCAGCGATG
switch fluorescence ratio: 1.93

CATTTTAGAC
switch fluorescence ratio: 0.994

AAGCTAGTTA
switch fluorescence ratio: 0.995

ACTAAAATCC
switch fluorescence ratio: 1.24

TGTTGGGAT
switch fluorescence ratio: 0.979

TGCCTTGTTC
switch fluorescence ratio: 0.99

ACGGGACCAA
switch fluorescence ratio: 1.17

GAGAACAGGG
switch fluorescence ratio: 1.02

AGAACGGAAA
switch fluorescence ratio: 1.02

CTTTTCTTGA
switch fluorescence ratio: 0.964

TGGAGGATGG
switch fluorescence ratio: 0.971

TCTGGGGACT
switch fluorescence ratio: 0.968

AAGCCTCCAC
switch fluorescence ratio: 1.18

TCCACCGGAC
switch fluorescence ratio: 1.88

CATCTTCACC
switch fluorescence ratio: 0.995

CGTGGTCAC
switch fluorescence ratio: 0.978

TCAATGGTG
switch fluorescence ratio: 0.991

TCGGGTTGAA
switch fluorescence ratio: 1

CTAGTTAAAT
switch fluorescence ratio: 0.995

AGGGGTGAAT
switch fluorescence ratio: 1

TTTTTTGTG
switch fluorescence ratio: 0.974

ATGTTTATTA
switch fluorescence ratio: 0.976

CCCATTTCAG
switch fluorescence ratio: 1.02

ATATAGATG
switch fluorescence ratio: 1.02

AACAAGGCAG
switch fluorescence ratio: 1.02

ATGCGAATAC
switch fluorescence ratio: 2.87

ACCGACTTGA
switch fluorescence ratio: 1.11

TAGCCGTGAC
switch fluorescence ratio: 1

AACGGGAGCA
switch fluorescence ratio: 1.07

GGCTATAAAC
switch fluorescence ratio: 1.04

GCATGTTTGG
switch fluorescence ratio: 1.01

ATGAATGGGA
switch fluorescence ratio: 0.949

GTTGCGTGG
switch fluorescence ratio: 1.01

TTCGGGACTG
switch fluorescence ratio: 0.936

CGCTACACTG
switch fluorescence ratio: 1.14

TTGAACCGTC
switch fluorescence ratio: 1.01

GCCGTTCGGG
switch fluorescence ratio: 1.05

TACATTGTAG
switch fluorescence ratio: 1.01

TTCTCGTTCC
switch fluorescence ratio: 1.19

TTCCACTAAC
switch fluorescence ratio: 1.15

TATTAATAGC
switch fluorescence ratio: 0.964

TTTCGGATCT
switch fluorescence ratio: 1.01

GTGGCATGCT
switch fluorescence ratio: 1.01

ATGATAAAGC
switch fluorescence ratio: 0.97

GGGCCGTTTT
switch fluorescence ratio: 0.97

ATAAATCAAT
switch fluorescence ratio: 1.01

TTGGTATTAA
switch fluorescence ratio: 0.97

GCAAGAGGTG
switch fluorescence ratio: 1.16

CGAGGCTTG
switch fluorescence ratio: 1.05

TTCTTGTAGC
switch fluorescence ratio: 1.05

GGTTCAGGTT
switch fluorescence ratio: 1

CGTCAAGGGT
switch fluorescence ratio: 0.988

ACGTTAAGTA
switch fluorescence ratio: 0.992

GAGGGCACGT
switch fluorescence ratio: 0.988

AGGTCCGAGA
switch fluorescence ratio: 1.03

GCCGGGCCAA
switch fluorescence ratio: 1.01

AGCTACACTA
switch fluorescence ratio: 1.06

TTTCGAGGTC
switch fluorescence ratio: 1.01

GAGATACCGT
switch fluorescence ratio: 1.02

ATAGGATAGA
switch fluorescence ratio: 0.984

CCCGCGCGAT
switch fluorescence ratio: 2.98

GTCGAGCGGG
switch fluorescence ratio: 1.04

TGAAGTTCAG
switch fluorescence ratio: 0.972

CGAGTTCGTG
switch fluorescence ratio: 0.962

GAGAGTCGAT
switch fluorescence ratio: 1.01

AGGGTTCAA
switch fluorescence ratio: 1.01

TAGAATTAAG
switch fluorescence ratio: 0.977

CCCAGTGGCT
switch fluorescence ratio: 1.09

TATCGTGAGG
switch fluorescence ratio: 0.988

AATACGGGTT
switch fluorescence ratio: 1.02

AGAGCGGACA
switch fluorescence ratio: 1.02

TGGCCTTCAA
switch fluorescence ratio: 0.943

TCCACTTGCA
switch fluorescence ratio: 1.05

TTTTTGCGCA
switch fluorescence ratio: 0.968

AGGTGAGCAA
switch fluorescence ratio: 1.31

TATATTAGTC
switch fluorescence ratio: 1.04

CTGCCGAGGG
switch fluorescence ratio: 0.972

TGCCTTCACG
switch fluorescence ratio: 1.17

TGACGGTTTG
switch fluorescence ratio: 1.02

GAAATCCACT
switch fluorescence ratio: 0.987

CAGTTGCGGA
switch fluorescence ratio: 0.993

TGGACAAGAG
switch fluorescence ratio: 0.974

TGCAAGCTGG
switch fluorescence ratio: 0.997

CTATGACGA
switch fluorescence ratio: 1.04

TCCTGCGGGA
switch fluorescence ratio: 4.09

GACCGTCCCG
switch fluorescence ratio: 1.05

AATGTCGAC
switch fluorescence ratio: 0.981

AAAAACTACT
switch fluorescence ratio: 1.09

GTCATTGAAT
switch fluorescence ratio: 0.928

GTATTAGGGA
switch fluorescence ratio: 1.03

ACTTTCTTCA
switch fluorescence ratio: 1.05

TCGGGTGTTC
switch fluorescence ratio: 1.06

GCTGGGACTA
switch fluorescence ratio: 0.992

TACCGTAAGC
switch fluorescence ratio: 1.56

CCAGGGGCAT
switch fluorescence ratio: 1.5

ATCCTTGTAT
switch fluorescence ratio: 1

GTAGGTCCCT
switch fluorescence ratio: 1.01

ACGTAGGGGA
switch fluorescence ratio: 0.978

TTCGATGGTT
switch fluorescence ratio: 0.988

TCGAAATGGT
switch fluorescence ratio: 1.03

AGGTTCCGCA
switch fluorescence ratio: 1.53

TAAGACCGAC
switch fluorescence ratio: 1.6

ACGTGGCCAA
switch fluorescence ratio: 1.02

GCCTAGGCTA
switch fluorescence ratio: 0.986

CCATCCCTTG
switch fluorescence ratio: 0.988

ATACAGTGGG
switch fluorescence ratio: 1.01

GGCTAGAACT
switch fluorescence ratio: 1.01

GGTATTATAG
switch fluorescence ratio: 1.01

CTTGGACCTT
switch fluorescence ratio: 1.17

AGGCCATACG
switch fluorescence ratio: 1.01

AAGTTATTAT
switch fluorescence ratio: 1.02

GAGTTCAAGC
switch fluorescence ratio: 0.984

CGCGAAATTC
switch fluorescence ratio: 1.05

AGTGTCCGAG
switch fluorescence ratio: 1.02

ATTCTGGTTC
switch fluorescence ratio: 0.998

TACCATGTTA
switch fluorescence ratio: 1.02

AATTGAATTG
switch fluorescence ratio: 0.969

TCCTTCGGGA
switch fluorescence ratio: 1.64

TTTATAAAAG
switch fluorescence ratio: 1.02

GGCTGAGTC
switch fluorescence ratio: 1.02

GCCGGGCCTT
switch fluorescence ratio: 0.952

GCGCCAAGCC
switch fluorescence ratio: 0.99

— the supplement of paper PMC10126150
